# Experimental data from PubChem BioAssay AID361 (National Center for Advancing Translational Sciences (NCATS), 2006).
# Screen size: about 51,000 compounds; about 600 (1.2%) were called active. Inconclusive means that the source gave no clear call. Such entries were picked first, then a sample of the others. Cut-off read from the data, not from the text of the source: active = potency below about 11 µM; inconclusive = mostly about 12 µM to 25 µM; inactive = weaker than that;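 the screen sought inhibitors and activators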. Potencies of inconclusive entries are left out as doubtful fits.
# Tested on: pyruvate kinase (Bacillus stearothermophilus)
# Test: Pyruvate Kinase
# Settings: purified pyruvate kinase, luminescence ATP production; ribose 5-phosphate activator present at AC10
# Procedure: Pyruvate kinase (partially purified from Bacillus stearothermophilus) was assayed for its ability to generate ATP from ADP using phosphoenolpyruvate (PEP) as a substrate. ATP generation was detected in a coupled reaction by luciferase-mediated luminescence, an ATP-dependent process. Pyruvate kinase substrates, PEP and ADP, were present in the assay at Km and […]-fold below Km respectively. The enzyme was assayed at an intermediate level of activity to screen for inhibitors and activators. In addition, ribose 5 phosphate, a positive modulator of pyruvate kinase, was included in the assay at AC10 in order to identify possible potentiators.
# NCGC Assay Protocol Summary:
# Three uL of substrate mix (final concentration, 50 mM imidazole pH 7.2, 50 mM KCl, 7 mM MgCl2, 2 mM PEP, 0.1 mM ADP, 0.7 nM ribose 5 phosphate, 0.01% Tween 20, 0.05% BSA) was dispensed into 1536 well plates. 23 nL of compound were delivered by a pin tool and 1 uL of enzyme mix (final concentration, 10 nM pyruvate kinase, 50 mM imidazole pH 7.2, 0.05% BSA) was added. After centrifugation at 1000 rpm for less than a minute, plates were incubated at room temperature for 2 hours. Three uL of detection and kinase stop mix (PKLight, Cambrex) was added, the plates centrifuged, and luminescence read by a ViewLux (Perkin Elmer) at 5 second exposure/plate. Data were normalized to the controls for AC100 stimulation (5 uM ribose 5 phosphate) and to AC100 inhibition (110 uM luteolin).
# Potency is the fitted concentration of half-maximal effect.
row,Compound,Potency
1,O=c1[nH]c(=O)n(Cc2ccccc2)c(O)c1C=NCCCn1ccnc1,inactive: > 57 µM
2,CC(c1ccccc1F)n1cc(C(=O)Nc2ccc3nc[nH]c3c2)nn1 (stereo not drawn),inconclusive [increasing]
3,CCC(=NCCCN(CC)CC)c1c(O)n(C2CCCCC2)c(=O)[nH]c1=O,inconclusive [decreasing]
4,Nc1ccccc1C(=O)OCCOc1ccccc1,inconclusive [decreasing]
5,CCC(=NCCN1CCOCC1)c1c(O)n(-c2ccccc2C)c(=O)[nH]c1=O,inactive: > 57 µM
6,COc1ccc(OC)c(C(O)C(C)N)c1 (stereo not drawn),inactive: > 25.6 µM
7,Cc1ccc2cccc(OC(=O)N3CCCC3)c2n1,inconclusive [increasing]
8,CCOC(=O)CCN=Cc1c(O)n(-c2ccc(Br)cc2)c(=O)[nH]c1=O,inconclusive [decreasing]
9,CCN(CC)CCCN=C(C)c1c(O)n(C2CCCCC2)c(=O)[nH]c1=O,inconclusive [decreasing]
10,CCOC(=O)c1c(N)n(CCN2CCCCC2)c2nc3ccccc3nc12,inactive: > 57 µM
11,CN(C)C(=O)Oc1ccc(Cl)c2ccccc12,inconclusive [increasing]
12,N[C@@H](Cc1c[nH]c2ccccc12)c1nnc(SCc2ccccc2F)o1,inconclusive [increasing]
13,Cc1ccc(N(C)C(=O)Oc2cccc3cccnc23)cc1,inconclusive [increasing]
14,CCCCCCn1c(O)c(C=NC2CCCCC2N)c(=O)[nH]c1=O (stereo not drawn),active: 2.71 µM
15,Cc1ccccc1C1=NCC(=O)N(CC(=O)NCc2ccco2)c2sc3c(c21)CCCC3,inactive: > 57 µM
16,CN(C)[C@@H]1C(=O)C(C(N)=O)=C(O)[C@@]2(O)C(=O)C3=C(O)c4c(O)cccc4[C@@](C)(O)[C@H]3C[C@@H]12,inconclusive [increasing]
17,O=c1[nH]c(=O)n(C2CCCCCC2)c(O)c1C=NC1CCN(Cc2ccccc2)CC1,inconclusive [decreasing]
18,CC(C)(C)C(O)C(Oc1ccc(Cl)cc1)n1cncn1 (stereo not drawn),inconclusive [increasing]
19,O=C1CN=C(c2cccs2)c2c(sc3c2CCCC3)N1,inactive: > 57 µM
20,O=c1[nH]c(=O)n(Cc2ccco2)c(O)c1C=NCCN1CCOCC1,inactive: > 25.6 µM
21,Cc1ccc2nc3c(cc2c1)CC1(C(=O)N(C)C(=O)N(C)C1=O)C1CCCCN31 (stereo not drawn),inconclusive [decreasing]
22,COc1cccc(-c2nc(CS(=O)CC(=O)N3CCC4(CC3)OCCO4)c(C)o2)c1 (stereo not drawn),inactive: > 57 µM
23,CCOC(=O)C1C(=O)NC23CCCC2C1c1ccccc1O3 (stereo not drawn),inactive: > 57 µM
24,Cc1nn(-c2ccccc2)c2c1C(c1ccc3c(c1)OCO3)SCC(=O)N2 (stereo not drawn),inconclusive [increasing]
25,CCOC(=O)c1cc2c(cn1)[nH]c1ccccc12,inconclusive [decreasing]
26,CCC(=NCc1ccco1)c1c(O)n(-c2ccc(OC)cc2)c(=O)[nH]c1=O,inconclusive [increasing]
27,Cc1c2ccncc2c(C)c2c1[nH]c1ccccc12,inconclusive [decreasing]
28,O=P(O)(O)COc1ccccc1O,inconclusive [decreasing]
